Measurements as given in the supplement of paper PMC11417369.
± gives the standard deviation of the averaged measurements. The list shows a part of the results.

System: PfAP2-EXP AP2 domain (GST-tagged)
Experiment: gcPBM binding intensity (ln(normalized median fluorescence intensity)); higher = stronger DNA binding
Outline: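 Alexa488 anti-GST antibody, scanned at 488 nm, detected GST-tagged P. falciparum DNA-binding domains that had been expressed in E. coli and incubated for 1 h on an Agilent 4 × 180k array. The array carried primer-extended double-stranded 36-bp intergenic genomic probes and negative controls. Binding intensity is the highest Masliner-normalised natural-log median intensity across replicate spots of either orientation of each probe.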

Row | Sequence | gcPBM binding intensity (ln)
1 | TGTTTCTTATTTTTTTCACACACTAAACATTTCAAA [CACACA_site2218] | 8.92 ± 0.48
2 | GAAAAGAACAAGAGCATGCACTTAATAAGAATAATA | 9.53 ± 0.3
3 | AAAAAAAGATTATACACACACATATATAAACCTACA [CACACA_site710] | 8.47 ± 0.31
4 | TTTTTTTTTTTTGAAACATGCATTGTTTTATTCTTA [TGCATGCA_site15] | 8.69 ± 0.35
5 | TCTATACCTATTCTTACACACATATGTATATATATA [CACACA_site563] | 9.07 ± 0.21
6 | ATATATATATAATCAAGTACACAGTAATAAAAAGAA [XGTACX_site1070] | 9.51 ± 0.071
7 | ATTGTGTTCATCAGCACACACAACATCATGCAATAA [CACACA_site6960] | 8.47 ± 0.44
8 | AATAATAACTGTAGGTGTACGTAAAAAAAAAATTAT [XGTACX_site3133] | 8.95 ± 0.45
9 | TTTTTTTTTTTTTGTTGTACAATACTTAATCATTAT [XGTACX_site3422] | 8.64 ± 0.57
10 | CATATGTCTTGAGATCGTACGTTATTTTTTTTATTT [XGTACX_site1381] | 8.95 ± 0.52
11 | AAGAATATTAATATAAATAAGTAAATAAATAAATAA [CACACA_negctrl_site417] | 8.63 ± 0.4
12 | TGGTAAATTTACCGTTGTACATTCATTTATAACATT [XGTACX_site8910] | 8.68 ± 0.42
13 | AAAAATTATATATATATATATATATATATATGTATA [GTGCAC_negctrl_site488] | 8.7 ± 0.028
14 | TATAAATTTAAAATGACACACACTAAAATTATTTAA [CACACA_site1239] | 8.36 ± 0.42
15 | GTATTATTATTATGCACACAAAAATATTTATACATA [CACACA_site3656] | 8.725 ± 0.007
16 | TATATATATATATATATATATATATATATATGTATA [TGCATGCA_negctrl_site17] | 9.98 ± 0.38
17 | ATTAAAACAAAATGTACACACATATCATTTAATGAC [CACACA_site6543] | 8.48 ± 0.34
18 | CATTATTATTAACATACACACGTGTTAAATACACCC [CACACA_site6118] | 8.91 ± 0.6
19 | TATGAAAAGATATATACACACATAATAAAGGTATAT [CACACA_site7713] | 8.63 ± 0.42
20 | ACATACACATATACATGTACATATATATATATATAT [XGTACX_site5082] | 10.2 ± 0.2
21 | CTATTTCAATTTAGTGCACACATTTTAATTTATAAG [CACACA_site2040] | 9.4 ± 0.65
22 | TTTTAATCTTAATTATGTACATATAAAATGTGTATA [XGTACX_site7382] | 8.26 ± 0.36
23 | ATATATGTATTTAATACACACAAAACTTTCATTCCA [CACACA_site3531] | 8.43 ± 0.31

Row | Sequence | gcPBM binding intensity (ln)
24 | ATATTCATTAACCACACACACAAAAAAAATAAAATT [CACACA_site3801] | 8.73 ± 0.48
25 | TTTTTAGAAAGACATGCATGTAATAAAAATAAATAA [TGCATGCA_site685] | 9.54 ± 0.53
26 | ATACATATATGCTTCTGTACACATAATTTATAAAAA [XGTACX_site7000] | 8.96 ± 0.3
27 | GCTATTAATTTATAAGCACACAATATAAATATATAT [CACACA_site2251] | 8.39 ± 0.26
28 | ATTACATGATATATCACACACACATATAGATATATA [CACACA_site7352] | 8.65 ± 0.44
29 | AATTTTGTTAAAAGGACACACAATTCAATATATTAA [CACACA_site647] | 8.52 ± 0.52
30 | TACACGTTCTACATTTGTACTTAATTTATACATAAG [XGTACX_site1579] | 8.91 ± 0.45
31 | TACGTCTTTTTTTTGGTGCATAATTTTTTTGTACAA | 9.05 ± 0.099
32 | TATATTAAAATATTCACACACTAACGTAAATCATTG [CACACA_site5520] | 8.35 ± 0.42
33 | ATTTATTTAAACAAATCACACACAAATATATATACA [CACACA_site8622] | 8.69 ± 0.4
34 | TATGTCGACATTTAAAGTACAAAAAAAAAAAAAAAA [XGTACX_site8985] | 8.11 ± 0.51
35 | TAAAAATCCACAAGCACACAAATGTACATATATATA [CACACA_site2462] | 8.71 ± 0.24
36 | TATATATGTGTTATATACCCTTTTTTATATATTAAT [XGTACX_negctrl_site313] | 8.54 ± 0.53
37 | CATACATAGATATATACACACATACCTATAAATACA [CACACA_site6513] | 8.53 ± 0.43
38 | TATAAAAAGCATAACACACACATGTCAATATATATA [CACACA_site1111] | 8.8 ± 0.42
39 | ATAGAACAGAAAAGGCGTACAATAATATGTAAACAA [XGTACX_site2828] | 9.02 ± 0.38
40 | AAAAAAAAAATATGTACACACATATATAATACATAA [CACACA_site1639] | 8.49 ± 0.38
41 | TTAAGTCCGTTAACAGTGCATTTTTTCTTTTATGTA [GTGCAC_site9867] | 8.79 ± 0.39
42 | AGAAAAGAGAAAAGTAGTACAAAGGATCATTTAAAA [XGTACX_site5294] | 8.72 ± 0.67
43 | TAATGAAAAAATAAAAGAATAAATAAATAAATAAAT [TGCATGCA_negctrl_site130] | 8.77 ± 0.3
44 | ATTAAAAAAATATAAACACACAAAAAAAAAATATAC [CACACA_site1100] | 8.8 ± 0.58
45 | AATTTGAAATATGTGGTGCAGTTATATAATATGTTT [GTGCAC_site9885] | 8.8 ± 0.29
46 | ATATTTTCCCTTGTTTTACACACGTGCTGATATGAG [CACACA_site8672] | 9.37 ± 0.6

Row | Sequence | gcPBM binding intensity (ln)
47 | ATATAGAATAAAACTATACACACCTATATTTAAACA [CACACA_site1902] | 8.62 ± 0.37
48 | TGTAGTCTGGAGAAAAGTACACAGTATCTGGTAACC [XGTACX_site2033] | 8.46 ± 0.32
49 | TATATTAATAAAGGTACTACACGGAAATGGAAATAT [XGTACX_site7760] | 9.22 ± 0.53
50 | CTTGTATAGAAACACACACACACTTTCTTTTTTTAA [CACACA_site1964] | 8.56 ± 0.4
51 | ATATAAAAAAATAATAAATAAATAAAAAGATTTCTT [XGTACX_negctrl_site110] | 8.2 ± 0.4
52 | CACATTAATTTTTGGGTGCACTTGGGAAATTTTGGT | 9.27 ± 0.63
53 | ATATATATTATATATATATATATATATATATATATA [CACACA_negctrl_site493] | 9.85 ± 0.33
54 | ATAATATGAAAACACACACACACACCCAAAAAAAAA [CACACA_site2011] | 8.7 ± 0.52
55 | AGGATATAATACCATACACACATTTATAAAATAACA [CACACA_site1930] | 8.62 ± 0.36
56 | AACAAATACGAACACACACACACACTAAAAAAAAAA [CACACA_site6386] | 8.63 ± 0.59
57 | TGTAATCAAAAAAATAGTACATAAATTGTGTATACT [XGTACX_site5908] | 8.59 ± 0.39
58 | TAATAAATAAATGACACACACACACGCAAAAAAAAA [CACACA_site7275] | 8.86 ± 0.61
59 | ATACCTACATACATACGTACATATATATATATAATG [XGTACX_site234] | 9.1 ± 0.47
60 | TAGATTTTTATGCGTGCACACATTTAAAAAAAAAAC [CACACA_site3421] | 8.69 ± 0.35
61 | TTTTAATAAATTCAAAACATAAAAAGGAAAAAAAAA [XGTACX_negctrl_site471] | 8.62 ± 0.73
62 | AAATATAATAACATAACACACACATGTATTTATAGG [CACACA_site8009] | 8.46 ± 0.52
63 | TATAATGAGAAGATATAATATATAGGGGGTAATTCT [GTGCAC_negctrl_site228] | 9.29 ± 0.54
64 | ATATATATATATATATGTACTTATTTGTATAAATAC [XGTACX_site8031] | 10.1 ± 0.28
65 | TTTTTTTCATAAGAAGCACACAAAAAATGATAGAGA [CACACA_site8401] | 8.91 ± 0.41
66 | ATTCTTTATTATTCGCCACACACATATATATATATA [CACACA_site9009] | 10.2 ± 0.28
67 | TATTGGAAAATTAGAAGTACTTTCATATATTAGACT [XGTACX_site4503] | 8.42 ± 0.3
68 | TTTTTATTATTCCATAGTACAGAAAAAATGATATAT [XGTACX_site3431] | 8.45 ± 0.35
69 | ATTAAATATGTCAAGTGTACAAAATGTAAAAAAAAA [XGTACX_site4119] | 8.76 ± 0.42

Row | Sequence | gcPBM binding intensity (ln)
70 | TTATATATACCTAAGACACACACATATATATATATA [CACACA_site8153] | 10 ± 0.27
71 | TAAATATATATATACACACACACCAAAGCAATAGAT [CACACA_site2940] | 9.2 ± 0.45
72 | GCCATTGTACCATCCACACACATATAAATATGTATA [CACACA_site7303] | 9.16 ± 0.32
73 | TGTTAATAGAAATACGTGCACACTAAAGGGAAAACA [CACACA_site1485] | 9.23 ± 0.35
74 | TATGAAGAAAAGAATTGTACGATGTTTATTTTGTAT [XGTACX_site8614] | 8.4 ± 0.31
75 | TTGTTATCTACCTGTAGTACATATATTATGTAATAT [XGTACX_site735] | 8.55 ± 0.28
76 | ACAGTATCAATATGGATAAAAATGTCCATATGCCTG [TGCATGCA_negctrl_site482] | 8.2 ± 0.45
77 | TATATAACATATAACACACATACTTAGTATTACATA [CACACA_site3099] | 8.24 ± 0.28
78 | TACGAAAAAAAAAAAAAAAAAAAAAAACACAAAAAA [CACACA_negctrl_site1643] | 8.15 ± 0.61
79 | AATACCATAATCAATGCACACATAACAAAATATTAT [CACACA_site8873] | 8.62 ± 0.33
80 | ATATAATGGACCATAGTGCATAAAAATAACAAAAAA [GTGCAC_site9558] | 9.02 ± 0.16
81 | TTTTTATATTTTATAGTGCAAAAACTTACATAAAAT | 8.43 ± 0.17
82 | TATTTTTTTTCTTTATTTATAACGCTCAATATATTC [GTGCAC_negctrl_site265] | 8.72 ± 0.47
83 | TGGAAATATATATATATATATACATATATATATAGC [XGTACX_negctrl_site107] | 8.32 ± 0.26
84 | CATATAAATATATATACACACACACCGTAATACATA [CACACA_site9158] | 8.73 ± 0.38
85 | ATTTTATAACATTCATGTACACATTTCATTTATTTG [XGTACX_site3028] | 8.81 ± 0.4
86 | TTTTAATATTTTAAGAGTACAGAAATATATAATATG [XGTACX_site4955] | 8.62 ± 0.46
87 | AGAGACACTTTTTATTGTACAAGAGGAGGTTACCTT [XGTACX_site8768] | 8.59 ± 0.57
88 | CATTATGTTGTAAATACACACATACAGATACATACA [CACACA_site4565] | 8.68 ± 0.42
89 | TTTTTTGGTTTTCATGCACACAATTTATAAATCTAT [CACACA_site3106] | 9 ± 0.18
